Reference: PubChem BioAssay AID588342 (National Center for Advancing Translational Sciences (NCATS), 2011)
“And” between values parts separate entries of the source, which are not always exact repeats. Equal entries are not always repeated. About 25,000 (6.9%) of roughly 360,000 compounds were called active. Inconclusive results, whose numbers are uncertain, are shown with a selection of clear calls. Calls come from the whole dose curve; as a rule, active = well fitted inhibition curve with a large enough effect; inconclusive = small, poorly fitted or top-dose-only effect; inactive = flat fitted curve, though single readings scatter. Where the call is inconclusive, the potency comes from a doubtful curve fit.

Target: Luciferin 4-monooxygenase (Photinus pyralis) (UniProt P08659)
Chain of UniProt P08659 (P08659 whole entry, looked up): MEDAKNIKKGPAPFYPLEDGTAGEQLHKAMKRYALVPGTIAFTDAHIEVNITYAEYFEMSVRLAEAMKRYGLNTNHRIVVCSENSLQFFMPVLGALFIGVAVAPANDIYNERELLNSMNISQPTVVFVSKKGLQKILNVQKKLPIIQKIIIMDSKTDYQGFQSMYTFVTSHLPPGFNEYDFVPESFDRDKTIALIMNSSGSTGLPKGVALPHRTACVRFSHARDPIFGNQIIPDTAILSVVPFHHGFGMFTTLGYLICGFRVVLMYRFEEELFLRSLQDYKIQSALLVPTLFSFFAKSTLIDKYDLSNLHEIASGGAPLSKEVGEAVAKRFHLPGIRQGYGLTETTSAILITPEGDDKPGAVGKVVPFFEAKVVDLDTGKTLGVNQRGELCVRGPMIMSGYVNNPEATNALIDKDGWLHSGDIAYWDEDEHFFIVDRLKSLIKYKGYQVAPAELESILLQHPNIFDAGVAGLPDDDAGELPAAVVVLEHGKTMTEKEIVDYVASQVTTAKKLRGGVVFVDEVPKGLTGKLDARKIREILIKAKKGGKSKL
Assay: qHTS profiling assay for firefly luciferase inhibitor/activator using purifed enzyme and Km concentrations of substrates (counterscreen for miR-21 project); note: nearly all actives have a fitted effect of over 55% in size;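 for activity change, negative = inhibition: plate controls were vehicle for no effect and reference inhibitor for full effect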
Conditions: purified FLuc, luminescence inhibition; series mostly up to 57.5 µM; activity change, negative = inhibition: at the top concentration
How it was run: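 Purified P. pyralis luciferase, 10 nM final, with Km-level 10 uM D-luciferin and 10 uM ATP in 50 mM Tris acetate pH 7.5, 10 mM Mg acetate, 0.01% Tween-20, 0.05% BSA; 6-point qHTS titration about 60 µM downward; luminescence read.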
Potency is the fitted concentration of half-maximal effect; tags give direction and shape of the fitted curve.

SMILES | Potency | activity change, negative = inhibition
Cc1ccc(OCC(=O)n2cnnc2N)c(C)c1 | inconclusive: 23.9 µM [inhibitor, partial curve, poor fit] | 
O=C(O)COc1ccc(/C=N/NC(=O)c2cccc3ccccc23)cc1 | inconclusive: 37.9 µM [inhibitor, partial curve, poor fit] | 
CCn1cnc2cc(NCc3ccc(N(C)C)cc3)ccc21 | inconclusive: 26.9 µM [inhibitor, single point] and inconclusive: 15.1 µM [inhibitor, partial curve] | 
C=CCn1c(CCC(=O)O)ccc1-c1ccc(OC)cc1 | inconclusive: 21.3 µM [inhibitor, partial curve, poor fit] | 
Cc1ccc(CNC(=O)C2CCN(S(=O)(=O)N3CCCC3)CC2)cc1 |  | inactive: -1.94%
COC(=O)c1ccccc1NC(=O)CSc1c2c(nc3ccc(Cl)cc13)CCCC2 |  | inactive: -0.159%
O=C1N(Cc2ccc(F)cc2)CCN1c1ccc(F)cc1 | inconclusive: 30.1 µM [inhibitor, single point] | 
Cc1cc(C)c(S(=O)(=O)Nc2ccc(-c3ccc(N4CCCCC4)nn3)cc2)cc1C | inconclusive: 30.1 µM [inhibitor, partial curve, poor fit] | 
O=C(NCC(c1cccnc1)N1CCN(Cc2ccccc2)CC1)C(=O)Nc1ccc(F)cc1 (stereo unspecified) | inconclusive: 37.9 µM [inhibitor, single point] | 
S=c1nc(-c2ccc(Br)cc2)oc2c1CCCC2 | inconclusive: 26.9 µM [inhibitor, partial curve, poor fit] | 
COc1ccc(C(=O)NNC(=O)CSc2nc3c([nH]2)c(=O)n(C)c(=O)n3C)cc1 | inconclusive: 26.9 µM [inhibitor, single point] | 
O=C(C1CC1)N1CCc2cc(Br)cc(S(=O)(=O)Nc3ccc(C(F)(F)F)cc3)c21 | inconclusive: 26.9 µM [inhibitor, partial curve, poor fit] | 
COc1ccccc1NC(=O)c1ccccc1NC(=O)c1cccs1 | active: 19 µM | 
COc1ccc(/C=C(\C#N)C(=O)ONC2=NCCCCC2)cc1 | inconclusive: 37.9 µM [inhibitor, partial curve, poor fit] | 
CC(C)CC(=O)NC(=S)Nc1cccc(NC(=O)c2ccccc2Cl)c1 | inconclusive: 37.9 µM [inhibitor, partial curve, poor fit] | 
COc1cccc(/C=N/NC(=O)c2[nH]nc3c2CCc2ccccc2-3)c1O | inconclusive: 9.53 µM [inhibitor, partial curve] | 
O=C(Nc1nc2ccccc2s1)c1ccccc1 | active: 1.69 µM | 
COc1cc(/C=N/NC(=O)c2ccc(CSc3nc4ccccc4[nH]3)cc2)cc(OC)c1OC | inconclusive: 21.3 µM [inhibitor, partial curve, poor fit] | 
COc1ccc2c(Cl)c(C(=O)NCc3ccco3)sc2c1 | active: 10.7 µM | 
COc1cccc(N=Nc2c(N)[nH]n3c(=O)c4c(nc23)CCCC4)c1 | inconclusive: 42.6 µM [inhibitor, partial curve, poor fit] | 
COC(=O)c1ccc(NC(=O)c2cc3cc4ccc(OC)c(Cl)c4nc3s2)cc1 | inconclusive: 19 µM [inhibitor, partial curve, poor fit] | 
C=CCNC(=O)/C(C#N)=C/c1ccccc1Cl | inconclusive: 26.9 µM [inhibitor, single point] | 

SMILES | Potency | activity change, negative = inhibition
CC(=O)Nc1ccc(NC(=O)Nc2ccccc2C)cc1 | inconclusive: 23.9 µM [inhibitor, partial curve, poor fit] | 
CCCOc1ccc(-c2c(=O)n(O)c3ccccc3[n+]2[O-])cc1 | inconclusive: 21.3 µM [inhibitor, partial curve] | 
CCCCc1ccc(NC(=O)c2ccc(NS(C)(=O)=O)cc2)cc1 |  | inactive: -12.9%
Cc1cccc(NC(=O)Cn2c(=O)oc3cc(S(=O)(=O)N4CCCCCC4)ccc32)c1 | inconclusive: 23.9 µM [inhibitor, partial curve, poor fit] | 
CC(=O)N1CCC(=NNc2nc3ccccc3[nH]2)CC1 | inconclusive: 26.9 µM [inhibitor, partial curve, poor fit] | 
Cc1cccc(Nc2nc(N)nc(-c3oc4ccccc4c3C)n2)c1 | inconclusive: 23.9 µM [inhibitor, partial curve] | 
Cc1ccc(Cn2c(Cc3ccccc3)nc3ccccc32)cc1 | inconclusive: 26.9 µM [inhibitor, partial curve, poor fit] | 
O=C(Cc1ccc(S(=O)(=O)N2CCOCC2)s1)OCc1ccc(Cl)cc1 |  | inactive: 4.59%
Cc1c(C(=O)NCC2CCCO2)sc2nc(-c3ccc(F)cc3)cn12 (stereo unspecified) | inconclusive: 16.9 µM [inhibitor, partial curve] | 
O=C(NC(=O)c1ccccc1)Nc1ccccn1 | active: 0.269 µM | 
Cc1ccc(N(CC(=O)NCc2ccc(OC(C)C)cc2)S(=O)(=O)N(C)C)cc1 |  | inactive: -3.1%
O=C(Nc1cccc(-c2nc3ccccc3[nH]2)c1)c1cccc(NC(=O)c2ccco2)c1 | inconclusive: 1.51 µM [inhibitor, full curve] | 
CC(Oc1ccccc1F)C(=O)N1CCC(c2nc3ccccc3o2)CC1 (stereo unspecified) |  | inactive: -8.38%
Cc1ccc(NC(=O)c2sc3nc[nH]c(=O)c3c2C)cc1C | inconclusive: 21.3 µM [inhibitor, single point] | 
CCN(CC)S(=O)(=O)c1ccc(Cl)c(NC(=O)COC(=O)/C=C/c2ccc(O)c(OC)c2)c1 | inconclusive: 3.79 µM [inhibitor, partial curve, poor fit] | 
CCOc1ccc(C(=O)Nc2cc(-c3nc4ccccc4[nH]3)ccc2Cl)cc1[N+](=O)[O-] | inconclusive: 7.57 µM [inhibitor, partial curve] | 
CCCCCCCCSc1nnc2[nH]c(=O)cc(N)n12 | inconclusive: 21.3 µM [inhibitor, partial curve, poor fit] | 
Cc1ccc2oc(=O)n(CCCOc3ccccc3C)c2c1 | inconclusive: 19 µM [inhibitor, partial curve] | 
CCCCNC(=O)c1onc(CSc2cccc(F)c2)c1C(=O)O | inconclusive: 26.9 µM [inhibitor, partial curve, poor fit] | 
CC(=O)c1cccc(NC(=O)c2c(C)nn(-c3ccccc3)c2Cl)c1 | inconclusive: 26.9 µM [inhibitor, partial curve, poor fit] | 
CCc1ccc2oc(-c3ccc(C)c(NC(=O)c4ccc(C#N)cc4F)c3)nc2c1 | active: 16.9 µM | 
CCc1ccc(OCc2cnc(Cl)s2)cc1 | active: 21.3 µM | 

SMILES | Potency | activity change, negative = inhibition
COc1ccc2c(CC(=O)Nc3nccs3)coc2c1 | inconclusive: 23.9 µM [inhibitor, partial curve] | 
O=C1NN(c2ccccc2)C(=O)/C1=C/c1coc2ccccc2c1=O | inconclusive: 23.9 µM [inhibitor, partial curve, poor fit] | 
CCOC(=O)c1cc2n(c1C)-c1ccccc1C2=O | inconclusive: 10.7 µM [inhibitor, partial curve] | 
O=C(Nc1cccc([N+](=O)[O-])c1)c1ccc2c(c1)OCO2 | active: 19 µM | 
CCCCc1nc2cc(C(=O)N3CCC(O)CC3)ccc2o1 | active: 10.7 µM | 
CCOC(=O)C1CCN(c2nnc(N3CCCC3=O)s2)CC1 | inconclusive: 37.9 µM [inhibitor, partial curve, poor fit] | 
C/C(=N\Nc1nc2ccccc2[nH]1)c1ccc(N2CCOCC2)cc1 | active: 1.07 µM | 
O=C1N/C(=C\c2ccccc2)C(O)=C1C=NCc1ccccc1 | inconclusive: 3.01 µM [inhibitor, partial curve, poor fit] | 
COc1ccc(OCc2nc(N)nc(Nc3ccccc3OC)n2)cc1 | inconclusive: 26.9 µM [inhibitor, partial curve] | 
CCOc1cc(/C=C2\C(=O)ON=C2C)ccc1OCc1ccccc1 | inconclusive: 13.5 µM [inhibitor, partial curve] | 
COc1ccc(OC)c(NC(=O)c2c(NCc3ccc(N(C)C)cc3)sc3c2CCCC3)c1 |  | inactive: 1.7%
COc1ccc(NC(=O)c2oc3ccccc3c2NC(=O)C23CC4CC(CC(C4)C2)C3)cc1 |  | inactive: -1.82%
O=C(Nc1nc2c(Cl)cccc2s1)c1ccc(Br)o1 | inconclusive: 8.49 µM [inhibitor, partial curve] | 
CCn1c(CC(=O)Nc2ccc(OC)cc2)nnc1SCC(=O)N1CCOCC1 |  | inactive: -0.234%
CCN(CC)c1nc(-c2ccccn2)nc(-c2ccccc2)c1C#N | inconclusive: 16.9 µM [inhibitor, partial curve, poor fit] | 
O=C(c1cc2c(s1)-c1ccccc1S(=O)(=O)C2)N1CCN(Cc2ccccc2)CC1 | inconclusive: 23.9 µM [inhibitor, single point] | 
NC(N)=N/N=C/c1ccc2cccc(OCc3ccccc3)c2n1 | inconclusive: 37.9 µM [inhibitor, partial curve, poor fit] | 
Cc1ccc(OCc2cc(=O)n3c4c(sc3n2)CCCC4)cc1C | inconclusive: 2.39 µM [inhibitor, partial curve, poor fit] | 
COc1cc(OC)cc(C(=O)Nc2ccc3c(c2)n(C)c(=O)c(=O)n3C)c1 |  | inactive: -5.55%
COc1ccc(S(=O)(=O)N(CC(=O)Nc2ccc3c(c2)OCO3)c2ccc(C)cc2)cc1 | inconclusive: 16.9 µM [inhibitor, partial curve, poor fit] | 
COc1ccccc1NC(=O)Cn1cnc2c(oc3nc4c(cc32)CCCC4)c1=O |  | inactive: -14.3%
Nc1nonc1-c1nc2ccccc2n1CC(=O)Nc1cccc(Cl)c1Cl |  | inactive: -2.24%
